Test results published in patent US20030027764A1.

Target: Bee venom (Apis melifera) PLA2 (Apis mellifera) (UniProt P00630)
Test: cell-based or functional assay

recombinant Python Antitoxic Factor (PAF), later renamed Phospholipase Inhibitor from Python (PIP), (from UniProt Q9I8P7 20-201)
% Inhibition (mean) of paw oedema; Bee venom PLA2 (1 µg) + PAF (50 µg): 36.8% | % Inhibition (mean) of paw oedema; Bee venom PLA2 (1 µg) + PAF (100 µg): 78.2%
